Measured values: a collection of fitness landscapes (doi:10.1126/science.1257360)
This is one part of the list.

B1: PhoQ; a variant is named by its letters at X, in order, P23837 (parent)
chain: MKKLLRLFFPLSLRVRFLLATAAVVLVLSLAYGMVALIGYSVSFDKTTFRLLRGESNLFYTLAKWENNKLHVELPENIDKQSPTMTLIYDENGQLLWAQRDVPWLMKMIQPDWLKSNGFHEIEADVNDTSLLLSGDHSIQQQLQEVREDDDDAEMTHSVAVNVYPATSRMPKLTIVVVDTIPVELKSSYMVWSWFIYVLSANLLLVIPLLWVAAWWSLRPIEALAKEVRELEEHNRELLNPATTRELTSLVRNLNRLLKSERERYDKYRTTLTDLTHSLKTPLXXLQXXLRSLRSEKMSVSDAEPVMLEQISRISQQIGYYLHRASMRGGTLLSRELHPVAPLLDNLTSALNKVYQRKGVNISLDISPEISFVGEQNDFVEVMGNVLDNACKYCLEFVEISARQTDEHLYIVVEDDGPGIPLSKREVIFDRGQRVDTLRPGQGVGLAVAREITEQYEGKIVAGESMLGGARMEVIFGRQHSAPKDE

Variants of: B1
Assay: enrichment ratio after two sorts for PhoP signalling (ratio (wild type AVST 3.29)); higher = more functional
Settings: with PhoP (E. coli)

Variant | enrichment ratio
FSWT | ≤ 0.25
NMPH | ≤ 0.25
NIQA | ≤ 0.25
DEMR | ≤ 0.25
AALE | 1.95
FSYD | ≤ 0.25
GMTH | ≤ 0.25
VDEG | ≤ 0.25
IGPC | ≤ 0.25
SING | 13.7
DEEF | ≤ 0.25
TYCE | ≤ 0.25
MERP | ≤ 0.25
FWHH | ≤ 0.25
RNFG | ≤ 0.25
IAHF | ≤ 0.25
KAQR | ≤ 0.25
FAIE | ≤ 0.25
FVSP | ≤ 0.25
HDSH | ≤ 0.25
RHVG | ≤ 0.25
ESMH | ≤ 0.25
TAEW | ≤ 0.25
NAGH | ≤ 0.25

Variant | enrichment ratio
EASM | ≤ 0.25
KLWR | ≤ 0.25
YSDT | ≤ 0.25
IARC | 0.28
WDTN | ≤ 0.25
WTGR | ≤ 0.25
LNTV | ≤ 0.25
WRGD | ≤ 0.25
FMNY | ≤ 0.25
VWTL | ≤ 0.25
SYTF | ≤ 0.25
RRDD | ≤ 0.25
LHCH | ≤ 0.25
YHRM | ≤ 0.25
LWKY | ≤ 0.25
YYSN | ≤ 0.25
TRHC | ≤ 0.25
PNYV | ≤ 0.25
HMQN | ≤ 0.25
YIFD | ≤ 0.25
KANW | ≤ 0.25
GNWD | ≤ 0.25
FDVE | ≤ 0.25
AERS | ≤ 0.25

Variant | enrichment ratio
NFSF | ≤ 0.25
HENN | ≤ 0.25
GKCM | 3.47
GFWN | ≤ 0.25
YETE | ≤ 0.25
HCKM | ≤ 0.25
MALN | 8.63
NTVK | ≤ 0.25
ICES | ≤ 0.25
YEDY | ≤ 0.25
GSFI | ≤ 0.25
LKIK | ≤ 0.25
YSVM | 4.14
FAVC | ≤ 0.25
MEML | 12
DNLY | ≤ 0.25
EPTQ | ≤ 0.25
NEAT | 2.42
NWTV | ≤ 0.25
RQGY | ≤ 0.25
YISN | 0.322
YEPG | ≤ 0.25
HNNN | ≤ 0.25
QFHE | ≤ 0.25

Variant | enrichment ratio
WWTH | ≤ 0.25
FWTA | ≤ 0.25
KMFD | ≤ 0.25
FGRF | ≤ 0.25
AQCM | ≤ 0.25
KYFW | ≤ 0.25
SETV | 14.9
LPII | ≤ 0.25
PCKN | ≤ 0.25
DCKR | ≤ 0.25
TCWI | 1.27
FHCR | ≤ 0.25
DTVE | ≤ 0.25
NTIQ | ≤ 0.25
GMCD | ≤ 0.25
GQNP | ≤ 0.25
ANGK | ≤ 0.25
ILGK | ≤ 0.25
MRCC | ≤ 0.25
HDMA | ≤ 0.25
GFPQ | ≤ 0.25
VGPY | ≤ 0.25
HIAY | ≤ 0.25
VTHA | ≤ 0.25

Variant | enrichment ratio
VQRS | ≤ 0.25
RWFF | ≤ 0.25
SMTG | 5.2
KHWI | ≤ 0.25
GCKA | ≤ 0.25
HLAM | 4.36
PNCG | ≤ 0.25
ADQR | ≤ 0.25
QYAQ | 1.68
LCDR | ≤ 0.25
VKKG | ≤ 0.25
MLYT | ≤ 0.25
VEGP | ≤ 0.25
TCGD | 20.3
QNWY | ≤ 0.25
ETRN | ≤ 0.25
FGNW | ≤ 0.25
FKYE | ≤ 0.25
QVVW | ≤ 0.25
DFVS | ≤ 0.25
SMIP | ≤ 0.25
SGSY | 6.9
RGSY | ≤ 0.25
KFVD | ≤ 0.25

Variant | enrichment ratio
AYGE | ≤ 0.25
IMYP | ≤ 0.25
THWA | ≤ 0.25
AKWH | ≤ 0.25
PFST | ≤ 0.25
FFHT | ≤ 0.25
LDLD | ≤ 0.25
DEYP | ≤ 0.25
VTRS | ≤ 0.25
RLWM | ≤ 0.25
EQWI | ≤ 0.25
DSFH | ≤ 0.25
TFRN | ≤ 0.25
LIKA | ≤ 0.25
SLQC | ≤ 0.25
LEVQ | ≤ 0.25
VLID | ≤ 0.25
SRLE | ≤ 0.25
AIQK | ≤ 0.25
FAYN | ≤ 0.25
STQV | 2.63
GDDC | ≤ 0.25
VPWG | ≤ 0.25
NHDN | ≤ 0.25

Variant | enrichment ratio
ICKG | ≤ 0.25
YFHE | ≤ 0.25
MLPG | ≤ 0.25
DLKD | ≤ 0.25
LMVN | ≤ 0.25
SKNH | ≤ 0.25
DQLW | ≤ 0.25
MIVA | 0.385
LGRL | ≤ 0.25
TYIS | ≤ 0.25
APPY | ≤ 0.25
QVNA | ≤ 0.25
PKNY | ≤ 0.25
YESW | ≤ 0.25
DKNS | ≤ 0.25
DGAS | ≤ 0.25
VISL | 0.654
MRLC | ≤ 0.25
HYDK | ≤ 0.25
MCPE | ≤ 0.25
PMVP | ≤ 0.25
WHLA | ≤ 0.25
LFST | ≤ 0.25
RMVQ | ≤ 0.25

Variant | enrichment ratio
SMYG | ≤ 0.25
LFPI | ≤ 0.25
FTGT | ≤ 0.25
QSGH | 5.99
EVAL | ≤ 0.25
IPCM | ≤ 0.25
FNLR | ≤ 0.25
TIKS | ≤ 0.25
IHES | ≤ 0.25
KEHW | ≤ 0.25
DLDW | ≤ 0.25
QASH | 4.83
KFWV | ≤ 0.25
TEAP | ≤ 0.25
FICQ | ≤ 0.25
KVRN | ≤ 0.25
EGQY | ≤ 0.25
RNCA | ≤ 0.25
TVWV | ≤ 0.25
NWFP | ≤ 0.25
KFNP | ≤ 0.25
YWWV | ≤ 0.25
WRSN | ≤ 0.25
NLAM | ≤ 0.25

Variant | enrichment ratio
PGNK | ≤ 0.25
MVFN | 9.27
IWWR | ≤ 0.25
YYVS | ≤ 0.25
APDH | ≤ 0.25
TSRD | ≤ 0.25
TLDY | ≤ 0.25
WAKV | ≤ 0.25
QPPW | ≤ 0.25
ICAN | ≤ 0.25
FMFW | ≤ 0.25
TTGK | ≤ 0.25
HRRM | ≤ 0.25
VFKA | ≤ 0.25
LMPM | ≤ 0.25
SNCN | 7.42
RLEQ | ≤ 0.25
DVFM | ≤ 0.25
DMFI | ≤ 0.25
ENRS | ≤ 0.25
DHTC | ≤ 0.25
PPVV | ≤ 0.25
HIFH | ≤ 0.25
WPWD | ≤ 0.25

Variant | enrichment ratio
WVLT | ≤ 0.25
DQDD | ≤ 0.25
GHFY | ≤ 0.25
YMWP | ≤ 0.25
VMND | ≤ 0.25
HKIF | ≤ 0.25
QFET | ≤ 0.25
PNHT | ≤ 0.25
FADC | ≤ 0.25
PGAE | ≤ 0.25
TCLF | 3.32
QDQR | ≤ 0.25
WTDP | ≤ 0.25
DAVV | ≤ 0.25
SKST | 8.48
LGWY | ≤ 0.25
TKHA | ≤ 0.25
VEQF | ≤ 0.25
MCQR | ≤ 0.25
MNEG | ≤ 0.25
NYKF | ≤ 0.25
EDQA | ≤ 0.25
ISVP | ≤ 0.25
VHIN | ≤ 0.25

Variant | enrichment ratio
NWLL | ≤ 0.25
PYRM | ≤ 0.25
NSQN | ≤ 0.25
DMGA | 2.33
ASLT | 11.9
VEAS | 3.57
LSED | ≤ 0.25
YGHG | ≤ 0.25
SNNR | ≤ 0.25
FSCF | ≤ 0.25
YTGE | ≤ 0.25
DTHF | ≤ 0.25
EQWR | ≤ 0.25
FQVC | ≤ 0.25
PNDL | ≤ 0.25
WHNL | ≤ 0.25
VWWV | ≤ 0.25
PCYR | ≤ 0.25
WLHQ | ≤ 0.25
FPSF | ≤ 0.25
TLEK | ≤ 0.25
IKIW | ≤ 0.25
THCV | 4.19
DRIL | ≤ 0.25

Variant | enrichment ratio
LHEP | 0.81
FFNN | ≤ 0.25
DWTL | ≤ 0.25
FLNW | ≤ 0.25
MNTR | ≤ 0.25
YCPC | ≤ 0.25
YWYP | ≤ 0.25
ENCF | ≤ 0.25
YEMW | ≤ 0.25
YLYP | ≤ 0.25
HSAC | ≤ 0.25
GKHE | ≤ 0.25
HWWA | ≤ 0.25
RYGA | ≤ 0.25
NMIL | ≤ 0.25
MPGH | ≤ 0.25
WPQP | ≤ 0.25
KVNW | ≤ 0.25
KFLW | ≤ 0.25
KERI | ≤ 0.25
YKQS | ≤ 0.25
AFHV | ≤ 0.25
KLEW | ≤ 0.25
DAIY | ≤ 0.25

Variant | enrichment ratio
PMHQ | ≤ 0.25
KRQS | ≤ 0.25
PVYG | ≤ 0.25
RNMV | ≤ 0.25
FMMK | ≤ 0.25
FLDK | ≤ 0.25
ITEV | ≤ 0.25
AMSS | 9.96
KGYF | ≤ 0.25
LNSA | ≤ 0.25
KCKS | ≤ 0.25
QPDM | ≤ 0.25
SDRK | ≤ 0.25
SIIK | ≤ 0.25
GSPV | ≤ 0.25
YAIF | ≤ 0.25
KTGY | ≤ 0.25
QSAV | 12.1
